# PubChem BioAssay AID504832 (National Center for Advancing Translational Sciences (NCATS), 2011)
# Among all 310,000 compounds or so, about 18,000 (5.8%) were called active. The inconclusive results got no clear call from the source; some entries with a clear call stand among them for comparison. Calls come from the whole dose curve; as a rule, active = well fitted inhibition curve with a large enough effect; inconclusive = small, poorly fitted or top-dose-only effect, or another doubt; inactive = no such curve, though single readings can be large or run the other way. No potency is given beside an inconclusive call; the fits are too rough.
# Assay: Primary qHTS for delayed death inhibitors of the malarial parasite plastid, 48 hour incubation
# Details: P. falciparum luciferase growth in erythrocytes; series mostly up to 28.7 µM
# In short: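 In quantitative HTS format, infected erythrocytes bearing luciferase-reporter parasites were treated for a single generation at 37 C. Luminescence after adding detection reagent served as the growth measure.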
# Potency is the fitted concentration of half-maximal effect; tags give direction and shape of the fitted curve.
row,SMILES,Potency
1,O=C(CCc1nc2sc3c(c2c(=O)[nH]1)CCCC3)NCCOc1ccccc1,"inconclusive [inhibitor, partial curve, poor fit]"
2,CC(C)(C)C1CCCCC1NC(=O)c1ccncc1 (configuration not stated),inactive
3,CC(C)(C)NC(=O)C1CC2CCCCC2CN1 (configuration not stated),"inconclusive [inhibitor, single point]"
4,c1csc(-c2nc3nc4ccccc4nc3n2Cc2ccc3c(c2)OCO3)c1,"inconclusive [inhibitor, single point]"
5,O=C(Nc1ccc(O)c2c(=O)cc(-c3ccccc3Cl)oc12)c1ccccc1Cl,"inconclusive [inhibitor, single point]"
6,CNC(=S)N(C)CCc1cc2c(c(OC)c1C=C1C(=O)NC(=O)NC1=O)OCO2,"inconclusive [inhibitor, partial curve]"
7,CS(=O)(=O)Oc1ccc(Br)cc1/C=C1/N=C(c2ccco2)OC1=O,inactive
8,CCCc1ccc(OCc2nc(-c3ccc(NC(=O)c4ccco4)cc3)no2)cc1,"inconclusive [inhibitor, full curve]"
9,Cc1ccc(C(CCNC(C)c2cccs2)c2ccco2)cc1 (configuration not stated),active: 10.4 µM
10,CN(Cc1ccccc1)CC(O)COc1ccc(CNCCc2ccncc2)cc1 (configuration not stated),active: 5.22 µM
11,Cc1cccn2c(=O)c3cc(C(=O)NCCCn4ccnc4)n(C)c3nc12,"inconclusive [inhibitor, single point]"
12,Cc1ccc(-c2cc3cccc[n+]3cc2-c2ccc(C)cc2)cc1,active: 0.415 µM
13,Cc1ccccc1-c1n[nH]c(=S)o1,inactive
14,COc1ccc(NC(=O)CSC2=NN3CCCC(=O)N=C3S2)c(OC)c1,inactive
15,CCOc1ccc2nc(Cl)sc2c1,inactive
16,CCCCC(O)(c1ccc(F)cc1)C(CN1CCOCC1)c1ccc(Cl)cc1 (configuration not stated),active: 1.85 µM
17,COc1ccc(OC)c(NC(=O)c2ccc3nc(-c4ccccc4)c(-c4ccccc4)nc3c2)c1,"inconclusive [inhibitor, single point]"
18,CCCCN(C1CCS(=O)(=O)C1)S(=O)(=O)c1cc(C)ccc1C (configuration not stated),"inconclusive [inhibitor, single point]"
19,COc1ccc(-c2cccc(C(=O)Nc3cccc(C(=O)O)c3)c2)cc1,inactive
20,CC(C)(C)NC(=O)/C(=C\C=C\c1ccccc1)NC(=O)c1ccc([N+](=O)[O-])cc1,"inconclusive [inhibitor, full curve, poor fit]"
21,COc1cc(C(C(=O)NC2CCCCC2)N(C(=O)c2cnccn2)c2ccccc2)cc(OC)c1OC (configuration not stated),"inconclusive [inhibitor, single point]"
22,N#CCCn1cc(C(=O)CN2C(=O)C(=O)N(C3CCCC3)C2=O)c2ccccc21,"inconclusive [inhibitor, single point]"
23,CCCCNC(=S)NNC(=O)c1ccc2c(c1)OCO2,inactive
24,O=C(COC(=O)C1(c2ccc(F)cc2)CCCC1)NCc1ccc2c(c1)OCO2,inactive

row,SMILES,Potency
1,O=CN1CCN(C(=O)c2ccc(Br)o2)CC1,inactive
2,Cc1cccc(Cn2ccc(NC(=O)c3ccc4c(c3)OCO4)n2)c1,inactive
3,Cc1ccccc1NC(=O)Cc1nnc(SCC(=O)N2CCOCC2)n1C,inactive
4,CC(OC(=O)c1ccc(O)cc1)C(=O)Nc1nc(-c2ccccc2)cs1 (configuration not stated),active: 6.57 µM
5,CS(=O)(=O)N1CCN(c2ccccc2NC(=O)c2cc3ccccc3o2)CC1,"inconclusive [inhibitor, partial curve]"
6,CCC(C)Sc1ccc([C@@H]2[C@H]3C(=O)N(CC)C(=O)[C@H]3[C@]3(C(=O)OC)CCCN23)cc1OC (some centres not stated),active: 11.7 µM
7,CC1CCCN(C(=O)c2cc(N3C(=O)C4C5CCC(C5)C4C3=O)ccc2Cl)C1 (configuration not stated),"inconclusive [inhibitor, partial curve, poor fit]"
8,COc1ccc(S(=O)(=O)N(C)C)cc1NC(=O)[C@H](Cc1ccccc1)N1C(=O)c2ccccc2C1=O,inactive
9,O=C(CCN=C1NS(=O)(=O)c2ccccc21)Nc1ccc(Cl)cc1F,"inconclusive [inhibitor, single point]"
10,Cc1occc1C(=O)N/N=C/c1c(O)ccc2ccccc12,active: 2.62 µM
11,CCOCCCNCc1ccc(OCc2ccc(F)cc2)c(OC)c1,"inconclusive [inhibitor, single point]"
12,Cc1cccc(-n2c(O)c(C=Nc3ccc(Br)cn3)c(=O)[nH]c2=O)c1,"inconclusive [inhibitor, single point]"
13,O=S(=O)(c1ccc2nc(-c3ccccc3)[nH]c2c1)N1CCN(c2ccc(Cl)cc2)CC1,active: 11.7 µM
14,CN1CCN(S(=O)(=O)c2cccc(C(=O)N(Cc3nnc(-c4ccccc4Cl)o3)C3CC3)c2)CC1,"inconclusive [inhibitor, single point]"
15,CCn1c(SCC(=O)Nc2nc(-c3ccccc3)cs2)nnc1-c1ccccc1O,"inconclusive [inhibitor, single point]"
16,Cc1cc(=O)[nH]c(SCC(=O)Nc2nc3c(s2)CCCC3)n1,inactive
17,O=C(Nc1ccc(N2CCN(C(=O)c3ccco3)CC2)cc1)c1ccc(Br)cc1,"inconclusive [inhibitor, full curve]"
18,COc1ccc(C(=O)OCCc2sc[n+](CC(=O)c3ccccc3)c2C)cc1,inactive
19,Cc1ccc(CCNC(=O)Cn2ccc3cc(S(=O)(=O)N4CCCC4)ccc32)cc1,"inconclusive [inhibitor, single point]"
20,Cc1ccc(CNC(=O)c2ccc3c(c2)NC(=O)C(N2CCOCC2)S3)cc1 (configuration not stated),"inconclusive [inhibitor, full curve, poor fit]"
21,Cc1ccc(NN2C(=O)C=C(c3ccccc3)C2=O)cc1,"inconclusive [inhibitor, single point]"
22,CCc1ccccc1NC(=S)N1CCN(c2ccccn2)CC1,inactive
23,COc1ccc(S(=O)(=O)N2CCOCC2)cc1NC(=O)c1ccccc1C,inactive
24,COc1ccc(-c2oc3cc(OC)c(O)c(OC)c3c(=O)c2OC)cc1O,"inconclusive [inhibitor, single point]"

row,SMILES,Potency
1,CCCCNC(=S)NNC(=O)c1cc(-c2ccncc2)nc2ccccc12,inactive
2,CCCN(CC(=O)Nc1cc(Cl)ccc1Cl)C(=O)c1ccccc1SCC(=O)N1CCCC1,"inconclusive [inhibitor, single point]"
3,Cc1ccccc1Cn1nc(C)c(NC(=O)c2noc3c2CCc2ccccc2-3)c1C,"inconclusive [inhibitor, partial curve, poor fit]"
4,O=P(O)(O)c1ccccc1OCc1ccccc1,"inconclusive [inhibitor, single point]"
5,COc1ccc(OC)c(NC(=O)c2cn(C)c(=O)c3cc(OC)c(OC)cc23)c1,"inconclusive [inhibitor, single point]"
6,O=C(Nc1ccccc1-c1ccccc1NC(=O)c1ccco1)c1ccco1,active: 10.4 µM
7,NC(=O)CC(NC(=O)Cc1ccc(Br)cc1)c1ccc(NC2CCCCCC2)c([N+](=O)[O-])c1 (configuration not stated),"inconclusive [inhibitor, single point]"
8,C=CCn1c(SCC(=O)NC(=O)c2cccn2C)nc2ccccc2c1=O,active: 3.7 µM
9,COc1cc(O)c(C(CC(=O)N2CCOCC2)c2cc(OC)c(OC)c(OC)c2)c(OC)c1 (configuration not stated),"inconclusive [inhibitor, single point]"
10,CCn1c(CN2CCN(c3cccc(C)c3C)CC2)n[nH]c1=S,inactive
11,Cc1cc(NC(=O)COc2ccccc2C)ccc1NC(=O)c1ccco1,"inconclusive [inhibitor, single point]"
12,COc1ccc2[nH]c(=O)c(CN(C3CCCCC3)C(c3nnnn3Cc3ccco3)C(C)C)cc2c1 (configuration not stated),active: 13.1 µM
13,Cc1nn(-c2ccccc2)c2c1C1(C(=O)N(C(C)C)c3ccccc31)C(C#N)=C(N)O2 (configuration not stated),"inconclusive [inhibitor, partial curve]"
14,CCCNC(=O)COC(=O)/C(C#N)=C/c1cc(C)n(CCC)c1C,inactive
15,CCCCn1nc2cc(C(=O)NCc3cc(C(F)(F)F)cc(C(F)(F)F)c3)ccc2c1OCC,"inconclusive [inhibitor, single point]"
16,CC(C)(C)c1nn(-c2ccccc2)c2[nH]c(=O)c(C=O)cc12,"inconclusive [inhibitor, full curve, poor fit]"
17,CC(NC(=O)c1ccc2c(c1)OCO2)c1cccc(C(F)(F)F)c1 (configuration not stated),"inconclusive [inhibitor, single point]"
18,Cc1ccc(-n2nc3c(c2NC(=O)c2ccco2)CS(=O)(=O)C3)cc1C,inactive
19,CC(SCc1ccccc1)C(=O)Nc1ccccc1Br (configuration not stated),inactive
20,Cc1ccc(NC(=O)CN2CCC(Cc3ccccc3)CC2)cc1S(=O)(=O)N(C)C,"inconclusive [inhibitor, partial curve, poor fit]"
21,O=C(O)CCc1cc(I)c(Oc2ccc(O)c(I)c2)c(I)c1,"inconclusive [inhibitor, partial curve]"
22,O=S(=O)(Nc1ccc(Cl)cn1)c1ccc(Cl)cc1,inactive
23,OC(CNCc1ccc(Cl)cc1)C(F)(F)F (configuration not stated),inactive
24,O=C(Nc1ccc(S(=O)(=O)N2CCCCC2)cc1)c1ccc(CN2CCc3ccccc3C2)cc1,"inconclusive [inhibitor, full curve]"
